Experimental findings from US11178870B2 (priority 2017, dated 2021) are described below.

Assay [1] has as its system Phytophthora infestans. Format: in vivo. The following applies: Late blight on tomato.
The test system of assay [2] is Magnaporthe grisea. The format is in vivo. The following applies: Blast on rice.

On to `Cn1c(-c2c(F)cc(F)cc2F)c(-c2cccnc2Cl)cc(Br)c1=O` [Compound 104], for which, in assay [1], the “Test F control value” was “L (L shows the control value of 50% or less)”. Moreover, the “Test A control value” in assay [2] was “H (H shows the control value more than 50%)”.
Taken in the same sequence, the figures for `CCn1c(-c2c(F)cc(OC)cc2F)c(-c2ocnc2F)cc(Cl)c1=O` [Compound 127] were “L (L shows the control value of 50% or less)” and “H (H shows the control value more than 50%)”.
The matching figures for `O=c1ccc(-c2cccnc2Cl)c(-c2c(F)cc(F)cc2F)n1CC(F)F` [Compound 67]: “L (L shows the control value of 50% or less)” and “H (H shows the control value more than 50%)”.
As for `CCn1c(-c2c(F)cc(F)cc2F)c(-c2ocnc2Cl)cc(Br)c1=O` [Compound 107], the “Test F control value” in assay [1] is given as “L (L shows the control value of 50% or less)”. Also, in assay [2], the “Test A control value” was “H (H shows the control value more than 50%)”.
On to `CCn1c(-c2c(F)cccc2F)c(-c2cnc(NC)o2)cc(Cl)c1=O` [Compound 134], for which, in assay [1], the “Test F control value” was “L (L shows the control value of 50% or less)”. The “Test A control value” in assay [2] was “L (L shows the control value of 50% or less)”.
Consider `CCn1c(-c2c(F)cc(F)cc2F)c(-n2c(Cl)nc(Cl)c2Cl)cc(Cl)c1=O` [Compound 137], for which the “Test F control value” in assay [1] is given as “L (L shows the control value of 50% or less)”. Further, the “Test A control value” in assay [2] is “H (H shows the control value more than 50%)”.
Taken in the same sequence, the figures for `CCn1c(-c2c(F)cc(NC)cc2F)c(-c2cnco2)cc(Cl)c1=O` [Compound 119] were “L (L shows the control value of 50% or less)” and “L (L shows the control value of 50% or less)”.
For `CCn1c(-c2c(F)cccc2F)c(-c2cccnc2Cl)cc(C)c1=O` [Compound 66], in assay [1], the “Test F control value” was “L (L shows the control value of 50% or less)”. Besides, in assay [2], the “Test A control value” is listed as “H (H shows the control value more than 50%)”.
`CCn1c(-c2c(F)cc(F)cc2F)c(-c2nn(C)cc2C)cc(Cl)c1=O` [Compound 19]: the “Test F control value” in assay [1] is “L (L shows the control value of 50% or less)”. For the same compound, the “Test A control value” in assay [2] is recorded as “H (H shows the control value more than 50%)”.
Take `Cn1c(-c2c(F)cccc2F)c(-c2ccsc2)ccc1=O` [Compound 15]: the “Test F control value” in assay [1] is “L (L shows the control value of 50% or less)”. Moreover, the “Test A control value” in assay [2] is listed as “L (L shows the control value of 50% or less)”.
Turning to `CCn1c(-c2c(F)cc(F)cc2F)c(-n2nc(C)c(Cl)c2C)ccc1=O` [Compound 95], the “Test F control value” in assay [1] is on record as “L (L shows the control value of 50% or less)”. Also, the “Test A control value” in assay [2] is given as “H (H shows the control value more than 50%)”.
Consider `CCn1c(-c2ccc(F)cc2F)c(-n2cc(Cl)cn2)cc(Br)c1=O` [Compound 150], for which, in assay [1], the “Test F control value” was “L (L shows the control value of 50% or less)”. Further, the “Test A control value” in assay [2] is “H (H shows the control value more than 50%)”.
As to `O=c1c(Cl)cc(-c2cccnc2Cl)c(-c2c(F)cccc2F)n1CC(F)F` [Compound 57], in assay [1], the “Test F control value” was “L (L shows the control value of 50% or less)”. The “Test A control value” in assay [2] was “H (H shows the control value more than 50%)”.
In the case of `CCn1c(-c2ccccc2Cl)c(-n2ncc(C)c2Cl)cc(Br)c1=O` [Compound 181], the “Test F control value” in assay [1] was “H (H shows the control value more than 50%)”. Moreover, in assay [2], the “Test A control value” is reported as “H (H shows the control value more than 50%)”.
On to `CCn1c(-c2c(F)cc(F)cc2F)c(-c2cccnc2Cl)ccc1=O` [Compound 61], for which, in assay [1], the “Test F control value” was “L (L shows the control value of 50% or less)”. Moreover, in assay [2], the “Test A control value” is reported as “H (H shows the control value more than 50%)”.
As for `CCn1c(-c2c(F)cc(F)cc2F)c(-c2cccnc2Cl)cc(Br)c1=O` [Compound 63], the “Test F control value” in assay [1] is recorded as “L (L shows the control value of 50% or less)”. Further, the “Test A control value” in assay [2] is recorded as “H (H shows the control value more than 50%)”.
Taken in the same sequence, the figures for `Cn1c(-c2c(F)cc(F)cc2F)c(-n2cc(Cl)cn2)cc(Br)c1=O` [Compound 176] were “L (L shows the control value of 50% or less)” and “H (H shows the control value more than 50%)”.
For the compound `Cn1c(-c2c(F)cc(F)cc2F)c(-n2cc(Cl)cn2)ccc1=O` [Compound 174], in assay [1], the “Test F control value” is recorded as “H (H shows the control value more than 50%)”. Also, the “Test A control value” in assay [2] is given as “H (H shows the control value more than 50%)”.
`COc1cc(F)c(-c2c(-n3cc(Cl)cn3)cc(Cl)c(=O)n2C)c(F)c1` [Compound 177]: the “Test F control value” in assay [1] is on record as “L (L shows the control value of 50% or less)”. In addition, in assay [2], the “Test A control value” is given as “H (H shows the control value more than 50%)”.
For `CCn1c(-c2ccc(F)cc2C)c(-n2cc(Cl)cn2)cc(Cl)c1=O` [Compound 170], in assay [1], the “Test F control value” is “L (L shows the control value of 50% or less)”. The “Test A control value” in assay [2] is “H (H shows the control value more than 50%)”.
Taken in the same sequence, the figures for `CCn1c(-c2ccc(OC)cc2F)c(-n2cc(Cl)cn2)cc(Cl)c1=O` [Compound 149] were “L (L shows the control value of 50% or less)” and “H (H shows the control value more than 50%)”.
Consider `CCn1c(-c2c(F)cc(OC)cc2F)c(-n2cc(Cl)c(C)n2)cc(Cl)c1=O` [Compound 143], for which the “Test F control value” in assay [1] is given as “L (L shows the control value of 50% or less)”. Besides, the “Test A control value” in assay [2] is recorded as “L (L shows the control value of 50% or less)”.
Turning to `CCn1c(-c2c(F)cc(F)cc2F)c(-c2oc(Br)nc2Br)cc(Br)c1=O` [Compound 96], the “Test F control value” in assay [1] is “L (L shows the control value of 50% or less)”. In addition, the “Test A control value” in assay [2] was “H (H shows the control value more than 50%)”.
Taken in the same sequence, the figures for `CCn1c(-c2c(F)cc(F)cc2F)c(-n2c(C)ccc2C)cc(Cl)c1=O` [Compound 125] were “L (L shows the control value of 50% or less)” and “H (H shows the control value more than 50%)”.
Take `CCn1c(-c2c(F)cc(F)cc2F)c(-n2ncc(C)c2Cl)cc(Cl)c1=O` [Compound 83]: the “Test F control value” in assay [1] is given as “L (L shows the control value of 50% or less)”. In assay [2], the “Test A control value” is given as “H (H shows the control value more than 50%)”.
The matching figures for `CCn1c(-c2c(F)cc(F)cc2F)c(-n2c(Cl)ccc2Cl)cc(Cl)c1=O` [Compound 133]: “L (L shows the control value of 50% or less)” and “H (H shows the control value more than 50%)”.
As for `CCn1c(-c2ccc(OC)cc2Cl)c(-c2ocnc2C)cc(Cl)c1=O` [Compound 39], the “Test F control value” in assay [1] was “L (L shows the control value of 50% or less)”. Besides, in assay [2], the “Test A control value” was “H (H shows the control value more than 50%)”.
Taken in the same sequence, the figures for `CCn1c(-c2ccc(F)cc2Br)c(-n2cc(Cl)cn2)cc(Br)c1=O` [Compound 166] were “L (L shows the control value of 50% or less)” and “H (H shows the control value more than 50%)”.
With `CCn1c(-c2c(F)cc(F)cc2F)c(-n2cc(Br)c(C)n2)cc(Br)c1=O` [Compound 147], the “Test F control value” in assay [1] is given as “L (L shows the control value of 50% or less)”. In assay [2], the “Test A control value” is “H (H shows the control value more than 50%)”.
For the compound `CCn1c(-c2c(F)cccc2F)c(C2OCCCO2)cc(Cl)c1=O` [Compound 11], the “Test F control value” in assay [1] was “L (L shows the control value of 50% or less)”. The “Test A control value” in assay [2] was “H (H shows the control value more than 50%)”.
Consider `O=c1c(Br)cc(-c2cccnc2Cl)c(-c2c(F)cccc2F)n1CC(F)(F)F` [Compound 64], for which, in assay [1], the “Test F control value” was “L (L shows the control value of 50% or less)”. In addition, in assay [2], the “Test A control value” is recorded as “H (H shows the control value more than 50%)”.
Turning to `CCn1c(-c2c(F)cc(F)cc2F)c(-n2cc(Br)cn2)cc(Br)c1=O` [Compound 77], the “Test F control value” in assay [1] is reported as “L (L shows the control value of 50% or less)”. Moreover, the “Test A control value” in assay [2] is “H (H shows the control value more than 50%)”.
Regarding `CCn1c(-c2c(F)cccc2F)c(-c2cnc(N)o2)cc(Cl)c1=O` [Compound 135], in assay [1], the “Test F control value” was “L (L shows the control value of 50% or less)”. For the same compound, the “Test A control value” in assay [2] was “L (L shows the control value of 50% or less)”.
As for `CCn1c(-c2c(F)cccc2F)c(-c2ccsc2Br)ccc1=O` [Compound 44], the “Test F control value” in assay [1] is “L (L shows the control value of 50% or less)”. Besides, in assay [2], the “Test A control value” is listed as “H (H shows the control value more than 50%)”.
Taken in the same sequence, the figures for `CCn1c(-c2c(F)cc(OC)cc2F)c(-c2cnco2)cc(Cl)c1=O` [Compound 37] were “L (L shows the control value of 50% or less)” and “H (H shows the control value more than 50%)”.
Taken in the same sequence, the figures for `COc1cc(F)c(-c2c(-n3cc(Cl)cn3)cc(Br)c(=O)n2C)c(F)c1` [Compound 178] were “L (L shows the control value of 50% or less)” and “H (H shows the control value more than 50%)”.
The matching figures for `CCn1c(-c2c(F)cccc2F)c(-n2ncc(C)c2Cl)ccc1=O` [Compound 153]: “L (L shows the control value of 50% or less)” and “H (H shows the control value more than 50%)”.
In the case of `CCn1c(-c2c(F)cc(F)cc2F)c(-c2cccnc2Cl)cc(Cl)c1=O` [Compound 62], the “Test F control value” in assay [1] was “L (L shows the control value of 50% or less)”. In assay [2], the “Test A control value” was “H (H shows the control value more than 50%)”.
With `CCn1c(-c2c(F)cc(F)cc2F)c(-n2cc(C)cn2)cc(C)c1=O` [Compound 86], the “Test F control value” in assay [1] was “L (L shows the control value of 50% or less)”. Further, in assay [2], the “Test A control value” is given as “H (H shows the control value more than 50%)”.
Consider `CN1C(=O)CCC(c2cccs2)=C1c1c(F)cccc1F` [Compound 1], for which, in assay [1], the “Test F control value” is “L (L shows the control value of 50% or less)”. Also, the “Test A control value” in assay [2] is recorded as “H (H shows the control value more than 50%)”.
